According to PubChem BioAssay AID445 (National Center for Advancing Translational Sciences (NCATS), 2006):
About 40 (0.04%) of roughly 110,000 compounds were called active. This list was built around the results that the source calls inconclusive (neither active nor inactive); the mix of calls is not that of the screen. The call rests on the fitted dose curve; in most records, active means well fitted curve in the direction sought with a large enough effect in the signal ratio (not every such curve was filed as active); inconclusive means small, poorly fitted or top-dose-only effect, or a change in a side signal; inactive means flat fitted curve, though single readings scatter; the % refers to the signal ratio. Potencies of inconclusive entries are doubtful fits and often do not repeat.

Assay: IkB Signaling;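 on IkBa stabilization activation: 0% = basal untreated cells and 100% = reference inhibitor full response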
Details: ABC-DLBCL IkBa-CBG/CBR dual luciferase ratio (green luciferase fused to IkBa over red control in OCI-Ly3 lymphoma cells), 4 h; IkBa stabilization activation: at 57.1 µM (top of the series), scaled: untreated 0%, proteasome inhibitor 100% unless noted
In short: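 In this assay, an IκBα–CBG68 fusion accumulates when IKK-driven degradation is blocked; native CBR normalizes for cell number. OCI-Ly3 cells were treated 4 h with compound and doxycycline, then green and red light read after Chroma-Glo addition.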
Potency means the concentration at half of the fitted maximal effect.

Compound | IkBa stabilization activation | Potency
CCOc1cc(-c2ccc(OC(=O)c3ccc(C)cc3)c(OC)c2)cc(=O)c2c(C)oc(C)c12 | inactive | 
Nc1c(-c2nc(-c3ccccc3)no2)nnn1CC(=O)Nc1cccc(F)c1 | inconclusive: 8.49% [signal inhibitor] | 
COc1ccc(CC(=O)Nc2ccc(S(=O)(=O)NCC3CCCO3)cc2)cc1 (centres undefined) | inconclusive: 1.99% [signal inhibitor] | 
CC(=O)c1ccc(NC(=O)CN(C)S(=O)(=O)c2cc3c(cc2Cl)NC(=O)CO3)cc1 | inconclusive: 1.01% [signal inhibitor] | 
CCCN(CCC)S(=O)(=O)c1ccc(C(=O)Nc2cccc(-c3nc4ccccc4[nH]3)c2)cc1 | inconclusive: 13.6% [signal inhibitor] | 
CCCN(CCC)C(=O)CSc1nc2n[nH]c(C)c2c(=N)n1-c1ccc(OC)cc1 | inconclusive: 1.02% [signal inhibitor] | 
Cc1ccc(NCc2cccn2-c2nnc(N3CCC(C(=O)NCCC(C)C)CC3)s2)cc1 | inconclusive: 3.62% [signal inhibitor] | 
Cc1c(NC(=O)C(C)N2C(=O)C3C4C=CC(C4)C3C2=O)c(=O)n(-c2ccccc2)n1C (centres undefined) | inactive | 
COc1ccccc1N1CCN(c2nc3ccccc3n3cnnc23)CC1 | inconclusive: 2.29% [signal inhibitor] | 
CCc1ccc(-n2nnc(-c3nsc(NC(=O)c4ccccc4Cl)n3)c2C)cc1 | inconclusive: -0.683% [signal inhibitor] | 
Cc1ccc2c(c1)N(C(=O)N1CCC(C(=O)NCc3cccc(Br)c3)CC1)CCO2 | inconclusive: 8.86% [signal inhibitor] | 
CCc1ccc(NC(=O)CN(C)S(=O)(=O)c2ccc3c(c2)c(=O)n(C)c(=O)n3C)cc1 | inactive | 
Cc1ccc(NC(=O)c2nnn(Cc3ccccc3)c2N)cc1C | inactive | 
c1ccc(N2CCN(c3nc4ccccc4n4nnnc34)CC2)cc1 | inconclusive: 13.2% [signal inhibitor] | 
O=C(Nc1ccc(Br)cc1)c1ccc(F)c(S(=O)(=O)NC2CCCCCC2)c1 | inconclusive: -1.15% [signal inhibitor] | 
O=C(COc1ccccc1)Nc1ccccc1C(=O)NCc1ccco1 | inconclusive: 7.21% [signal inhibitor] | 
COc1ccc(Cl)cc1C(=O)N(Cc1nc(-c2cccc(C)c2)no1)C(C)C |  | inconclusive: 20 µM [signal inhibitor, partial curve]
CCOC(=O)C1CCN(CC(=O)Nc2cc(C)c3c(=O)oc4ccccc4c3n2)CC1 | inconclusive: -1.19% [signal inhibitor] | 
Cc1cn2c(=O)cc(COc3cccc(NC(=O)c4ccc(C(C)(C)C)cc4)c3)nc2s1 | inconclusive: 15% [signal inhibitor] | 
O=C1CC(c2cccc(Cl)c2)Cc2nc(N3CCOCC3)ncc21 (centres undefined) | inactive | 
Cc1nn(-c2ccccc2)c2nc(C3CC3)cc(C(=O)Nc3ccc(F)cc3)c12 | inconclusive: -1.36% [signal inhibitor] | 
O=C(Nc1ccc(OCc2cc(=O)n3c4c(sc3n2)CCCC4)cc1)c1cccc(F)c1 | inactive | 
O=C(CCn1cnc2onc(-c3ccc(F)cc3)c2c1=O)Nc1ccc(F)c(Cl)c1 | inconclusive: -4.9% [signal inhibitor] | 

Compound | IkBa stabilization activation | Potency
CCc1c(C)sc2c1CCN(Cc1ccccc1)C2c1ccccc1 (centres undefined) | inconclusive: 4.72% [signal inhibitor] | 
COc1ccc(Nc2nc3ccccc3nc2NS(=O)(=O)c2ccc(C)cc2)c(OC)c1 | inconclusive: 5.14% [signal inhibitor] | 
O=C(COc1ccccc1F)OCc1cc(=O)n2nc(C3CCCCC3)sc2n1 | inactive | 
CC1CCc2c(nc3ncnn3c2N2CCN(c3ccccc3)CC2)C1 (centres undefined) | inactive | 
Cc1nc2nc(SCC(=O)N(C)Cc3ccccc3)nn2c(C)c1Cc1ccccc1Cl | inconclusive: 0.711% [signal inhibitor] | 
Cc1c(Cl)cccc1-c1ccc(CNCCCSc2nnnn2C)o1 | inconclusive: -0.852% [signal inhibitor] | 
Cc1ccc(Sc2ccc(N3CCCC(C(=O)Nc4ccc(Br)cc4)C3)nn2)cc1 (centres undefined) | inconclusive: 3.42% [signal inhibitor] | 
COc1ccc(SCc2cc(=O)c3ccc(C)c(C)c3[nH]2)cc1 | inconclusive: 0.477% [signal inhibitor] | 
O=C(NCCc1ccc(Cl)cc1)c1cc(-c2ccccc2)n[nH]1 | inconclusive: 2.15% [signal inhibitor] | 
c1ccc(Nc2nc(-c3ccoc3)nc3ccccc23)cc1 | inactive: 0.393% [at 11.4 µM, scaled: untreated 0%, proteasome inhibitor 100%] | 
Cc1ccc(C)c(N2CCN(c3nc4ccccc4c(=O)n3-c3ccc(Cl)cc3)CC2)c1 | inconclusive: 1.21% [signal inhibitor] | 
Cc1ccc(C)c(-n2nnnc2SCC(=O)NCCC2=CCCCC2)c1 | inconclusive: -0.848% [signal inhibitor] | 
COc1ccc2c(c1)Cc1sc(NC(=O)c3ccccc3C)nc1-2 |  | inconclusive: 20 µM [signal inhibitor, partial curve]
Cc1ccc(-c2nc3cc(NC(=O)C(C)C)ccc3o2)cc1C | inactive | 
COc1cccc(CNC(=O)c2ccc(-c3nc(CS(=O)c4ccccc4)c(C)o3)cc2)c1 (centres undefined) | inconclusive: 0.835% [signal inhibitor] | 
CCN(CCCNC(=O)CSc1cc(=O)n(CC)c2ccccc12)c1ccccc1 | inconclusive: 1.2% [signal inhibitor] | 
N#CC1=C(N)Oc2n[nH]c(-c3cccs3)c2C1c1ccoc1 (centres undefined) | inactive | 
CCc1ccc(CNC(=O)Cn2ccc3cc(S(=O)(=O)N4CCCCCC4)ccc32)cc1 | inconclusive: 1.42% [signal inhibitor] | 
COc1ccc(OC)c2sc(N(Cc3cccnc3)C(C)=O)nc12 | inactive | 
Nn1c(-c2cccs2)nc2sc3c(c2c1=O)CCCC3 | inconclusive: 2% [signal inhibitor] | 
COc1ccc2cc3c(N)nn(C(=O)Cc4ccccc4OC)c3nc2c1 | inconclusive: -5.46% [signal inhibitor] | 
COc1ccc(-c2cc(C(=O)N3CCCCC3)no2)cc1OC |  | inconclusive: 20 µM [signal inhibitor, partial curve]
CC1CN(C(=O)Nc2ccc(C(=O)NCc3ccccc3F)cc2)c2ccccc2S1 (centres undefined) | inconclusive: 4.1% [signal inhibitor] | 

Compound | IkBa stabilization activation | Potency
COC(=O)c1ccc(NC(=O)CSc2n[nH]c(-c3ccccc3)n2)cc1 | inconclusive: 1.83% [signal inhibitor] | 
Fc1ccccc1N1CCN(Cc2nnc(-c3ccc4c(c3)OCO4)o2)CC1 | inconclusive: 3.36% [signal inhibitor] | 
Cc1ccc(C)c(N2C(=O)N(Cc3ccccc3C)c3ccccc3S2(=O)=O)c1 | inconclusive: 5.27% [signal inhibitor] | 
CCn1cc(C2=NC(c3ccccc3)CO2)c2ccccc21 (centres undefined) | inconclusive: 10.8% [signal inhibitor] | 
O=C(Nc1nc2c(Cl)cccc2s1)c1ccc(S(=O)(=O)N2CCc3ccccc32)cc1 | inconclusive: 3.18% [signal inhibitor] | 
COc1ccc(/C=C/C(=O)Nc2ccc(C)cc2)cc1 | inactive | 
Cc1ccc(NC(=O)Cc2ccc(NC(=O)N3CCCCc4ccccc43)cc2)cc1Cl | inconclusive: -1.06% [signal inhibitor] | 
O=[N+]([O-])c1ccc(S(=O)(=O)Cc2ccccc2)c2nonc12 | inactive: 11.4% [at 11.4 µM, scaled: untreated 0%, proteasome inhibitor 100%] | 
O=C(Nc1ccccc1C(F)(F)F)c1cc(-c2ccccc2O)on1 |  | inconclusive: 0.00251 µM [signal inhibitor, full curve]
Cc1c(=O)n(OCc2ccccc2)c2ccccc2[n+]1[O-] | inactive | 
Cc1cccc(C)c1-n1ncc(C(=O)NCCCN2CCCCC2)c1C1CCN(C(=O)OC(C)(C)C)CC1 | inconclusive: 1.48% [signal inhibitor] | 
COc1ccc(C2CC(C(F)(F)F)n3nc(C(=O)NCc4c(C)nn(C)c4C)c(Cl)c3N2)cc1 (centres undefined) | inconclusive: 2.2% [signal inhibitor] | 
CCCCOc1ccc(C(=O)NCC(c2ccc(Cl)cc2)N2CCOCC2)cc1 (centres undefined) | inconclusive: 2.76% [signal inhibitor] | 
Cc1nc2cc(-c3ccc(Cl)cc3)nn2c(C)c1CCC(=O)N1CCN(c2ccccc2)CC1 |  | inconclusive: 2.51 µM [signal inhibitor, full curve]
CSc1nc2ccc(NS(=O)(=O)c3ccc(Cl)s3)cc2s1 | inconclusive: 3.02% [signal inhibitor] | 
CS(=O)(=O)c1ncc(Cl)c(C(=O)N2CCN(c3cccc(Cl)c3)CC2)n1 | inconclusive: 11.2% [signal inhibitor] | 
O=C(Nc1nc(-c2ccccc2)cs1)C1CCCN(S(=O)(=O)c2ccccc2)C1 (centres undefined) | inconclusive: 9.07% [signal inhibitor] | 
C=CCSc1nc2c(c(=O)[nH]c(=O)n2C)n1C(C)C | inactive | 
Cc1oc2ncn(CC(C)C)c(=O)c2c1C(=O)NCc1cccc(Cl)c1 | inactive | 
CC(C)Oc1ccc(CNC(=O)c2cc3cccc4c3n2CC(C)S4)cc1 (centres undefined) | inconclusive: -0.121% [signal inhibitor] | 
O=c1oc2c3c4c(cc2s1)CCCN4CCC3 | inactive | 
COc1ccc(CC(=O)N2CCN(c3ccccn3)CC2)cc1 | inactive | 
COc1ccc(Cl)cc1NC(=O)c1ccc(CN2C(=O)CCn3nc(C)cc32)cc1 | inconclusive: 0.974% [signal inhibitor] | 
